Here are results for 56 molecules from article PMC4336329 (PLoS ONE, 2015).

Structures are written as SMILES. About 14,000 (4.5%) of roughly 310,000 compounds showed an effect of 50% or more. The effect is printed as a negative number. Some of the results follow.
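Note: peak tail current of the secondary pulse compared with the same well before compound.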

The target of the test is human ether-à-go-go-related gene (hERG) potassium channel (human, UniProt Q12809). The experiment in a line: primary screen, population patch clamp on CHO cells stably expressing hERG.
Sequence of human ether-à-go-go-related gene (hERG) potassium channel (Q12809 whole entry, looked up): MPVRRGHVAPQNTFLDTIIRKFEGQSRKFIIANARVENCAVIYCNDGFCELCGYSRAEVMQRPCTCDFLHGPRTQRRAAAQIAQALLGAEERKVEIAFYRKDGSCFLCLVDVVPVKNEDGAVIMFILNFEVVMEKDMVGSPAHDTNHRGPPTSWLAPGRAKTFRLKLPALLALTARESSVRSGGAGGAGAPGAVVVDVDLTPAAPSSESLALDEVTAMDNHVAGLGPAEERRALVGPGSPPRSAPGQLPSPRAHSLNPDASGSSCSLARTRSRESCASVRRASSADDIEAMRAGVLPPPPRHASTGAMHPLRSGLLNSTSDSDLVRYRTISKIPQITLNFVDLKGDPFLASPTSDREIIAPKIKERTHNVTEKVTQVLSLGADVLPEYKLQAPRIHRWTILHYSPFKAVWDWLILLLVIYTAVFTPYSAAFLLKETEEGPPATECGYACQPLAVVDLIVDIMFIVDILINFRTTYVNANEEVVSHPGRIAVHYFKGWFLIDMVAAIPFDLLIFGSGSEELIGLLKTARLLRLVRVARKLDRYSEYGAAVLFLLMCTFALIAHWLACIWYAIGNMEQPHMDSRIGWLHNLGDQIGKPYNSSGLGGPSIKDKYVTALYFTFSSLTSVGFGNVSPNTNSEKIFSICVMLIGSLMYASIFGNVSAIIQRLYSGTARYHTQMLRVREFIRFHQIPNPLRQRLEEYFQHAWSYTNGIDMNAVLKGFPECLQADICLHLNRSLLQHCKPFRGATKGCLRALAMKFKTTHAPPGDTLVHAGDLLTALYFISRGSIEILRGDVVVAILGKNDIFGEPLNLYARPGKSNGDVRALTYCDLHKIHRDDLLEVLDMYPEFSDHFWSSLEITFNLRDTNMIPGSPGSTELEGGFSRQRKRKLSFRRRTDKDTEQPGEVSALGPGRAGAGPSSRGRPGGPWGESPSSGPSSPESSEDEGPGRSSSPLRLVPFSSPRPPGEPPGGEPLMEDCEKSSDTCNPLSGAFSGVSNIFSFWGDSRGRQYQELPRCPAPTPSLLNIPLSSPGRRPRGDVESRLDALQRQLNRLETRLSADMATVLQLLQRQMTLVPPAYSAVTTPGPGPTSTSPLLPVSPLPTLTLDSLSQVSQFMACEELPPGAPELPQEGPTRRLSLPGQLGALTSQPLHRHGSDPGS
In the case of `CN1CCN(c2ccccc2NS(=O)(=O)c2ccc3c(c2)CCN3C(=O)C2CCC2)CC1`, the “hERG current change (%, negative = inhibition) at 10uM” value is recorded as -23.3%. Turning to `COCC(=O)Nc1cc(Cl)ccc1C`, the “hERG current change (%, negative = inhibition) at 10uM” value worked out at 20.1%. With `COc1ccccc1/C=C/C=N/NC(=O)c1cc(-c2ccco2)[nH]n1`, the “hERG current change (%, negative = inhibition) at 10uM” value was -0.436%. In the case of `COc1ccc(NC(=O)Cn2nnc(-c3ccccc3F)n2)cc1Cl`, the “hERG current change (%, negative = inhibition) at 10uM” value worked out at 5.56%. With `COC(=O)c1ccc(CN2CCCC(CNC(=O)Cc3ccc(OC)cc3)C2)cc1` (centres unmarked), the “hERG current change (%, negative = inhibition) at 10uM” value is -14.7%. Under `Cc1onc(-c2ccccc2)c1C(=O)N1CCN(c2ccccc2F)CC1` stands 1.53%; under `O=C(Nc1ccc(Cl)c(C(=O)N2CCOCC2)c1)c1ccccc1`, -7.98%. Consider `C=C1CCN([C@@H](Cc2ccccc2)C(=O)Nc2ccc(OC)cc2)S(=O)(=O)c2ccccc21`, for which the “hERG current change (%, negative = inhibition) at 10uM” value was -3.32%. In the case of `CC(=O)c1cccc(NC(=O)C2C3C=CC(C3=C(c3ccccc3)c3ccccc3)C2C(=O)O)c1` (centres unmarked), the “hERG current change (%, negative = inhibition) at 10uM” value is given as -23.1%.

For the molecule `O=c1[nH]c(=S)[nH]c(O)c1N=Nc1cc2c(cc1[N+](=O)[O-])OCO2`, the “hERG current change (%, negative = inhibition) at 10uM” value is reported as -4.2%. For the molecule `Cc1ccc(-c2nnn(CC(=O)N(CCO)C(C(=O)NC(C)(C)C)c3ccncc3)n2)cc1` (centres unmarked), the “hERG current change (%, negative = inhibition) at 10uM” value is 9.05%. As for `CN(C)C(=O)Oc1ccc(OCc2n(C)c3ccccc3[n+]2C)cc1.[Cl-]`, the “hERG current change (%, negative = inhibition) at 10uM” value was found to be 5.79%. `COc1ccc(/C=N/NC(=O)CNc2ccc(Br)cc2)c(C(=O)O)c1OC`: the “hERG current change (%, negative = inhibition) at 10uM” value was 13.9%. Take `COc1ccccc1CNC(=O)C(NC(=O)c1ccccc1)C(C)C` (centres unmarked): the “hERG current change (%, negative = inhibition) at 10uM” value was determined as 6.98%. Turning to `Fc1ccc(/C=N/n2cnn(Cc3ccccc3Cl)c2=S)cc1`, the “hERG current change (%, negative = inhibition) at 10uM” value stood at 9.5%.

On to `Cc1oc2c(C)c3oc(=O)c(CCC(=O)N4C[C@H]5C[C@@H](C4)c4cccc(=O)n4C5)c(C)c3cc2c1C`, for which the “hERG current change (%, negative = inhibition) at 10uM” value is given as -51.7%. For the molecule `Cc1nc2c(ccc3c([N+](=O)[O-])cccc32)c(C)c1C`, the “hERG current change (%, negative = inhibition) at 10uM” value was 28%. For the molecule `COc1ccc(-c2nc3ccccc3nc2-c2ccccc2)cc1`, the “hERG current change (%, negative = inhibition) at 10uM” value was found to be 19.7%.

As for `COCCNC(=S)N1CCc2cc(OC)c(OC)cc2C1COc1ccc(F)cc1` (centres unmarked), the “hERG current change (%, negative = inhibition) at 10uM” value is -21.4%. For `O=C(NNC1=Nc2ccccc2SC1)c1ccc(Cl)cc1`, the “hERG current change (%, negative = inhibition) at 10uM” value was 3.3%.

On to `COc1cccc(-c2cc(C(=O)NCC3CCCO3)on2)c1` (centres unmarked), for which the “hERG current change (%, negative = inhibition) at 10uM” value is 11%. As for `CNc1nc(SC)nc2ccsc12`, the “hERG current change (%, negative = inhibition) at 10uM” value came out at 3.42%. For `OCC[C@H]1C[C@H](O)[C@@H](O)[C@@]2(CCc3ccccc3CO2)O1` the value was 7.83%. Under `Cc1nc2ccccc2c(=O)n1-c1ccc(NS(=O)(=O)c2ccccc2)cc1` stands -26.5%; under `COc1ccc(F)cc1S(=O)(=O)NCC(=O)NCc1cc(=O)n(C)c(=O)n1C`, 22.7%; under `Cc1ccc(CNc2ccc(N3C(=O)CC(C)C3=O)cc2[N+](=O)[O-])cc1` (centres unmarked), -4.21%. As to `CCN(CC)CCCNC(=O)Cn1cnc2ccc(S(=O)(=O)N3CCC(C)CC3)cc2c1=O`, the “hERG current change (%, negative = inhibition) at 10uM” value is -0.31%. With `Cn1cc(C(CO)Cc2ccccc2)c2ccccc21` (centres unmarked), the “hERG current change (%, negative = inhibition) at 10uM” value is 11.4%. For `CCc1nnc(NS(=O)(=O)c2ccc(NC(=O)c3ccccc3OC)cc2)s1`, the “hERG current change (%, negative = inhibition) at 10uM” value was 18.5%. As to `C/C(CC(=O)Nc1ccc2c(c1)OCO2)=N\NC(=O)OC(C)(C)C`, the “hERG current change (%, negative = inhibition) at 10uM” value was -5.1%. Under `COc1ccc(CC(=O)Nc2cc(C)on2)cc1` stands 5.74%; under `O=C(CSc1n[nH]c(=O)[nH]c1=O)N/N=C/C=C\c1ccccc1`, 23.6%; under `COc1cccc(CNc2nc3nc(C)cc(C)n3n2)c1`, -15.6%. For `Cc1nc2ccccc2n(CC(=O)Nc2cc(Cl)cc(Cl)c2)c1=O` the value was 25%; for `Fc1ccc(Cn2nnc3ccccc32)cc1`, 4.22%. For `COc1ccc(N=C2SCC(=O)N2c2ccc(OC)cc2)cc1` the value was -14.4%.

As for `COc1cc(C(=O)OC(C)CN2CCCC2)cc(OC)c1OC.Cl` (centres unmarked), the “hERG current change (%, negative = inhibition) at 10uM” value is listed as -12.2%. Take `O=[N+]([O-])c1ccc(S(=O)(=O)Nc2ccc3c(c2)OCCO3)cc1`: the “hERG current change (%, negative = inhibition) at 10uM” value is listed as 3.95%.

`CCCCC(CCC(=O)Nc1ccn(-c2ccccc2)n1)C(=O)O` (centres unmarked): the “hERG current change (%, negative = inhibition) at 10uM” value is 6.04%. Under `Oc1ccc(/C=N/NC(=S)NCCN2CCOCC2)c(O)c1` stands 10.8%; under `CN(C)CCCNc1nc(N)c([N+](=O)[O-])c(NCCO)n1`, 19.1%. Under `CC1CCCCN1C(=O)c1ccc(C(=O)Nc2ccc(F)cc2)cc1` (centres unmarked) stands -13.9%; under `CCN(CC(=O)Nc1c(F)cccc1F)C(=O)c1nc2nccc(C)n2n1`, 0.506%. As for `COC(CN(C)C(=O)C1CCC(CNS(=O)(=O)c2ccccc2)CC1)OC` (centres unmarked), the “hERG current change (%, negative = inhibition) at 10uM” value is on record as 9.87%.

Consider `CCCn1c(-c2ccc(OC)cc2)nc2c(=O)n(C)c(=O)[nH]c21`, for which the “hERG current change (%, negative = inhibition) at 10uM” value came to 22.6%. Under `CC1=NNC(=O)C1CCC(=O)N/N=C/C=C/c1ccccc1` (centres unmarked) stands 1.22%; under `CCn1c(SCC(=O)NCCc2ccccc2)nc2c([nH]c3ccccc32)c1=O`, 17%.

Take `COc1ccc(-c2nc(NC(=O)C3CC(=O)N(c4ccc5c(c4)OCCO5)C3)sc2C)cc1` (centres unmarked): the “hERG current change (%, negative = inhibition) at 10uM” value is recorded as 32.7%.

Regarding `O=C(NCc1ccco1)c1ccc(N2CCOCC2)c([N+](=O)[O-])c1`, the “hERG current change (%, negative = inhibition) at 10uM” value is -1.79%. As to `C[C@@H](CN=[N+]=[N-])CN1CC[C@H](C(C)(C)C)CCC1=O`, the “hERG current change (%, negative = inhibition) at 10uM” value worked out at 3.55%. For `Clc1cccc(-c2nc(NCCN3CCOCC3)c3ccccc3n2)c1` the value was -38.6%; for `Cc1sc2nc(CN3CCOCC3)nc(N3CCC(C(N)=O)CC3)c2c1C`, 5.73%; for `Cc1cccc(C)c1N=Nc1c(C)cc(O)cc1C`, 10.4%. For the molecule `CNS(=O)(=O)c1cc(OC)c(OC)cc1CC(=O)OC`, the “hERG current change (%, negative = inhibition) at 10uM” value worked out at 23.7%. Regarding `COc1ccc(S(=O)(=O)NCc2ccc3c(c2)cc(C)n3C)cc1`, the “hERG current change (%, negative = inhibition) at 10uM” value is -4.72%.

Consider `O=C1CN(C(=O)CSc2nc3ccccc3n2CCc2ccccc2)c2ccccc2N1`, for which the “hERG current change (%, negative = inhibition) at 10uM” value is given as -20.6%.
